The text below walks through data of PubChem BioAssay (NCI).

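Tested at 5 concentrations; 48 h exposure; 96-well plates; endpoints linearly interpolated, else capped at highest concentration. GI50 is the concentration that inhibits growth by half. The concentration for full growth arrest is given as TGI.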

In the assay the test system is NCI-H322M lung. The experiment in a line: NCI anticancer screen, dose series, 48 h.
For the molecule `COc1ccc2nc(Cl)c(-c3cc(-c4ccccc4)nc(N)n3)cc2c1`, the GI50 was 14.7 µM and the TGI came out at 59.4 µM.
`O=C(Nc1ccc(C(F)(F)F)cc1)Nc1ccc2oc(=O)ccc2c1`: the GI50 is 38.1 µM and the TGI was greater than 100 µM.
The like results for `N#CC1=C(c2ccco2)Nc2c(c(-c3ccccc3)nn2-c2ccccc2)C12C(=O)Nc1ccc(Cl)cc12` (stereo unspecified) were, in that order, 35.4 µM and greater than 100 µM.
